Whole data set: some 33,000 sequences, median “E-score (-0.5 to 0.5)” near -0.012, cut for the highest 2% near 0.27. The list shows a part of the results.
These sequences were tested against T1, Vhr1 (UniProt P40522) (assay: PBM E-score (8-mer binding enrichment) (E-score (-0.5 to 0.5)); higher = stronger / more preferred TF binding; most listed sequences are background and not binding sites). Settings: protein concentration: 200 nM; construct: GST-full length.
T1 sequence: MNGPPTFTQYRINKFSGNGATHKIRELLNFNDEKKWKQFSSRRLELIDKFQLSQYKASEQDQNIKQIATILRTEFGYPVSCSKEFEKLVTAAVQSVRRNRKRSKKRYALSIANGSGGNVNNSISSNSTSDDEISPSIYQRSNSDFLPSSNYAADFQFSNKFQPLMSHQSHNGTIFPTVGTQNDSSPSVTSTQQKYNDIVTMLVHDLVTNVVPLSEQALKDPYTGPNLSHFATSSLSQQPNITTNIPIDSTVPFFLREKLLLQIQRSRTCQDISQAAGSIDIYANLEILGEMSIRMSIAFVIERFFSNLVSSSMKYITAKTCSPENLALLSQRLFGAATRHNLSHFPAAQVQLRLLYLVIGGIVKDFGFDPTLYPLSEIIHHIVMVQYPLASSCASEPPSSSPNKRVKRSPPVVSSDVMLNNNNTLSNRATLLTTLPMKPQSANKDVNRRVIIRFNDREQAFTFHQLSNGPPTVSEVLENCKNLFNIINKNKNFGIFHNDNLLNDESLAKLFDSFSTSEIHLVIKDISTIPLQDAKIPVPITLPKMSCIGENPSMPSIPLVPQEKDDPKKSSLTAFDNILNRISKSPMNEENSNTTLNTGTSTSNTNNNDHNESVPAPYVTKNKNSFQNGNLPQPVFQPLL
Procedure, shortened: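 Yeast transcription factors, full-length or as DNA-binding domains, were expressed with a GST tag using PURExpress in vitro transcription/translation. At about 100-200 nM they were applied to universal all-10-mer Agilent arrays, double-stranded by primer extension on fresh or once-stripped slides. Fluorescent anti-GST detected bound protein, and masliner normalised the scans. E-scores for ungapped eight-base words, pooled with reverse complements, came from the Universal PBM Analysis Suite.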

| Sequence | PBM E-score |
| --- | --- |
| ATTAGGTA | -0.0382 |
| GCGCCGCA | 0.0412 |
| GCGCATAA | -0.102 |
| ATCTTACC | -0.135 |
| GCATAGGA | -0.0605 |
| ATCTCCCA | 0.0996 |
| ACTAGGTG | 0.0989 |
| GAAGTGAA | 0.0112 |
| GTCCGCTA | -0.117 |
| AGCGCCCA | -0.00043 |
| TGCCTAAA | -0.262 |
| CAACGCTG | 0.027 |
| AGCGTTTA | -0.296 |
| ACGTCTTA | -0.166 |
| AGAATCTG | -0.173 |
| GCTAAAAA | -0.265 |
| CACGCATA | -0.0871 |
| CAGAGTAC | 0.00375 |
| CGCTGCCG | -0.126 |
| GACGGGCC | -0.177 |
| TAACTAAA | -0.23 |
| CCGCGGCC | 0.106 |
| ACTGCAAC | 0.0291 |
| GCCTAGCA | -0.252 |
| CATCTAAA | -0.104 |

| Sequence | PBM E-score |
| --- | --- |
| AAATGCCT | -0.182 |
| GACATGTA | 0.0533 |
| GGGGCAAA | -0.0819 |
| GCCGAAGA | -0.187 |
| CCGGTCAG | -0.00524 |
| ATCCGGTC | -0.0747 |
| GTCCATAA | -0.169 |
| AATATCCT | 0.0597 |
| GTGGCCTA | -0.0848 |
| CCCTTTCA | -0.259 |
| ATTAAGGC | -0.124 |
| CACTTTAC | 0.0069 |
| CTAATCAA | 0.12 |
| CGTCTAAC | -0.16 |
| AGGACGCC | -0.04 |
| CAGCGAAA | -0.228 |
| GGTTACGA | -0.144 |
| ATGGGGTG | 0.216 |
| TTGATAAA | 0.0581 |
| ATAACGGG | -0.137 |
| ATGAATCA | 0.423 |
| GACAAGTC | -0.088 |
| CCGTATCA | 0.176 |
| GCTAATAC | 0.0958 |
| CTCTTCCA | -0.204 |

| Sequence | PBM E-score |
| --- | --- |
| ACATTATA | 0.101 |
| ATTACAAG | -0.0785 |
| CACGGGGA | 0.087 |
| CGAGCTCA | 0.144 |
| CAGGTAAG | -0.0858 |
| AGGCGGTA | -0.00203 |
| GTAAGCGA | -0.0171 |
| CCATAAAC | -0.0214 |
| TCCGAGAA | -0.307 |
| GAATGACA | -0.165 |
| AATAGCGT | -0.0117 |
| CATACACG | 0.176 |
| CTGCAGGA | 0.0985 |
| AGGTCGAA | 0.077 |
| GGGTGGCA | -0.0446 |
| GGTCCCAC | -0.0806 |
| AGACGCGC | -0.0633 |
| CGACCCGA | -0.138 |
| AAGAATGT | -0.105 |
| CCAGGCGG | 0.208 |
| GCGTAACC | -0.214 |
| CGCCACCA | 0.023 |
| ATGGTTAC | 0.213 |
| CATATAGC | 0.191 |
| ATCGGCTA | 0.0495 |

| Sequence | PBM E-score |
| --- | --- |
| TATAACGA | 0.0671 |
| CCCACCTA | 0.0868 |
| ACGAGTGC | -0.173 |
| ACTAAACC | 0.139 |
| CCGTTGAA | -0.205 |
| CAGAATCC | 0.0298 |
| GAGTGACC | -0.00862 |
| GGCAATTA | 0.0696 |
| AAGGGCAG | -0.0473 |
| ACAGTAAA | 4e-05 |
| GGATTGGA | 0.0389 |
| CGACTTAC | -0.00322 |
| AATCGCAA | 0.044 |
| CCTTCGTA | -0.0866 |
| CTTTCGGC | -0.0681 |
| CACATCTG | 0.147 |
| AGTACGGG | -0.095 |
| TAAGCTAA | -0.00312 |
| ATACCGGC | 0.0247 |
| CTGTTTAA | 0.0359 |
| TCTGGTAA | 0.11 |
| CGATAGTC | 0.115 |
| CGTGGCAA | -0.29 |
| TCATTTAA | -0.021 |
| GTACCGAC | 0.0481 |

| Sequence | PBM E-score |
| --- | --- |
| AGAACTCT | -0.12 |
| AGGCACCG | -0.0242 |
| GAGAGGCA | -0.0672 |
| CCACACCA | 0.141 |
| AAGTAAAC | -0.0688 |
| GTCGCCAC | 0.0894 |
| ATGGATAC | 0.26 |
| AAACAAAG | -0.0465 |
| AGAATCGC | 0.058 |
| CACTATGC | 0.0461 |
| GTCGTACA | 0.108 |
| ATGCGGAA | -0.11 |
| CCACACGG | -0.0821 |
| AACACTAC | 0.116 |
| CGGCACAG | 0.00884 |
| GAGATTTA | -0.176 |
| GGATTGAC | 0.0766 |
| CCGCGAAA | -0.0877 |
| AGCCGTGC | -0.176 |
| ACTTAATA | 0.0637 |
| CAAAGCTA | -0.191 |
| ACGCCAAA | -0.156 |
| CCCGTCAC | -0.0227 |
| ATCGATGC | 0.123 |
| AGAAGCCA | -0.0236 |

| Sequence | PBM E-score |
| --- | --- |
| ATGAGGAG | -0.157 |
| GTCCAGGA | -0.224 |
| GCATTTCC | 0.0502 |
| TTCACCAA | -0.179 |
| AGTATCAC | -0.0911 |
| GATCTTCC | -0.288 |
| AATCACGG | 0.259 |
| GACGATAA | 0.00693 |
| CCGACTAG | 0.0404 |
| AAATTTAT | -0.0978 |
| CTTAATGA | -0.0997 |
| AGCGGCAT | 0.102 |
| CGATAACA | 0.11 |
| CAACACTG | 0.0874 |
| CGCTACCC | 0.0326 |
| AAACTGCC | -0.0499 |
| CGTTCAGA | -0.214 |
| AGTACAAA | 0.123 |
| CGGCGATA | 0.174 |
| CCGCAGAG | -0.0558 |
| AACACGAG | -0.0814 |
| AGCTAACC | -0.0353 |
| ACTGATAT | 0.169 |
| ACACAAAT | 0.0879 |
| AAGCATGG | 0.0495 |

| Sequence | PBM E-score |
| --- | --- |
| ATGATGCA | 0.16 |
| ATTGCATA | 0.147 |
| ATCGTTGG | 0.0315 |
| AAGTATCA | 0.0499 |
| AAGATTAC | -0.0671 |
| ACCTGAGG | -0.134 |
| GCGATAGA | -0.072 |
| GATCGGAC | -0.0753 |
| ATATGCAC | 0.174 |
| AGGTGGTC | 0.0319 |
| GTTACCCA | 0.135 |
| ACATGTAG | 0.148 |
| GCCTGGAA | 0.0664 |
| ATATAGCA | 0.166 |
| ACACGCGG | 0.165 |
| GCTACACC | 0.0574 |
| CAAACCAA | 0.125 |
| GGCTGATA | 0.129 |
| AGGAGCGC | -0.17 |
| ACGAGCGG | 0.0726 |
| GTACGGAC | 0.135 |
| GAATTACC | -0.0496 |

From the supplement of paper PMC3334620
